According to PubChem BioAssay AID1240 (Sanford-Burnham Center for Chemical Genomics, 2008):
The whole screen tested about 50,000 compounds, of which about 800 (1.6%) showed an effect of 50% or more. This is one part of the list.

Biological target: Bcl-2-like protein 10 (Homo sapiens) (UniProt Q9HD36)
Experiment: Phenotype converters, Bcl-B/TR3 peptide binding displacement, primary biochemical FP (AID 1240);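 also: 0% = Bcl-B with tracer peptide and DMSO and 100% = tracer peptide lacking Bcl-B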
Details: GST-Bcl-B / FITC-TR3 peptide fluorescence polarization; stronger effect = higher value; compound at 3.75 mg/L

UniProt Q9HD36, sequence (Q9HD36 whole entry, looked up): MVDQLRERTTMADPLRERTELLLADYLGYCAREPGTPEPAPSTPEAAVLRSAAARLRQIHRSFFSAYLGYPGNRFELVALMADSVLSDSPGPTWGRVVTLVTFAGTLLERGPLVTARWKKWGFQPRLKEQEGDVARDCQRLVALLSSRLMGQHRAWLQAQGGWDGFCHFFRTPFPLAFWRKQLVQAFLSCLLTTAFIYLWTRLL

SMILES | displacement
O=C(Nc1ccccc1)C1C2C3CCC(C3)C12 (stereo unspecified) | 4%
O=C(Nc1cccc(S(=O)(=O)c2cccc(NC(=O)C(F)(F)F)c2)c1)C(F)(F)F | 0.8%
Cc1ccc(NC(=O)CCCOc2ccccc2)c(Br)c1 | 9.5%
O=C(CSCc1ccccc1)Nc1cccc2c1C(=O)N(c1ccccc1)C2=O | -3.4%
OCCCn1c(-c2ccccc2)cn2c3ccccc3nc12 | 5.1%
CCCOc1ccc(/C=C2\C(=O)N(c3ccc(S(N)(=O)=O)cc3)N=C2C)cc1OC | -2.3%
CC1CCC(CCOC(=O)C(C)(C)C)C1(C)C (stereo unspecified) | -3%
CCc1ccc(CN2CCN(S(=O)(=O)c3ccc(Cl)cc3)CC2)cc1 | 4.7%
O=C(Nc1nc2ccc3ccccc3c2s1)c1ccc(C(=O)c2ccccc2)cc1 | -3.8%
O=C1OC(/C=C/c2ccccc2)=NC/1=C/c1cccc([N+](=O)[O-])c1 | 98.4%
CCN(CC)CCNC(=O)COc1ccccc1O | 3.6%
O=C1N=c2ccc([N+](=O)[O-])cc2=C1c1sc(=Nc2ccccc2)n(-c2ccccc2)c1O | 0.4%
Cc1cc(C)cc(NC(=O)C2CC3CCC2C3)c1 (stereo unspecified) | -8.4%
CC(C)C12CN3CC(C(C)C)(CN(C1)C3c1c[nH]c3ccccc13)C2=O (stereo unspecified) | 7%
O=C1NC2(CCCCC2)Cc2ccccc21 | 7.4%
Clc1cccc(Cl)c1OCCN1CCOCC1 | 2.6%
Cc1ccc(C(=O)N/C(=C/c2cccc([N+](=O)[O-])c2)C(=O)Nc2c(C)n(C)n(-c3ccccc3)c2=O)cc1 | -2.1%
O=C1CCCC2=C1C(c1cccnc1)Nc1ccc(C(=O)c3ccccc3)cc1N2 (stereo unspecified) | -10.3%
COc1cc([N+](=O)[O-])ccc1NC(=O)COc1ccc(Cl)cc1C | 7.5%
O=C(Cn1c(C(=O)c2ccccc2)nc2ccccc21)c1ccccc1 | 5.1%
O=c1cnnc(N/N=C/c2ccccc2[N+](=O)[O-])[nH]1 | 8.4%
Cc1ccc(C(=O)CCNc2cccc(Br)c2)o1 | 10.6%
Cc1ccccc1OCC(=O)O/N=C(\N)Cc1ccc(Cl)cc1 | -0.6%

SMILES | displacement
CCOc1cccc(-c2nc3cc(C)ccc3o2)c1 | 1.9%
CC(CNC(=O)COc1cccc2ccccc12)CN(C)C (stereo unspecified) | -6%
O=C1NC(=O)/C(=C/c2c(F)cccc2Cl)S1 | -0.3%
FC(F)(F)c1ccccc1NC(=S)Nc1ccccc1 | -1.7%
Cn1c(=O)c2c(ncn2CC(=O)NC(c2ccccc2)c2ccccc2)n(C)c1=O | 4.5%
C=CCN1C(=O)/C(=C\c2cc(Cl)c(O)c(OCC)c2)C(=O)NC1=S | -12.7%
C=CCn1c(SCC(=O)c2cccs2)nc2sc3c(c2c1=O)CCCC3 | 8.4%
COC(=O)c1ccc(/C=C2\SC(=Nc3ccc(F)cc3)NC2=O)cc1 | 30.8%
Fc1ccc(NC(=S)N2CCN(Cc3ccc4c(c3)OCO4)CC2)cc1 | -4.5%
Cc1ccc(-c2nnc(-c3ccco3)o2)cc1 | -1%
Cc1cc2ncn(C(=O)c3ccc(-c4ccccc4)cc3)c2cc1C | 10.5%
CC(C)(C)OC(=O)NNC(=O)c1cccc(Cl)c1 | -9.4%
COc1ccc(C2/C(=C(/O)c3ccc(C)cc3)C(=O)C(=O)N2CCCCCC(=O)O)cc1 (stereo unspecified) | -63.8%
CCc1ccc2oc(-c3ccc(C)c(NS(=O)(=O)c4ccccc4)c3)nc2c1 | -4.7%
CC1=NN(c2ccc(S(N)(=O)=O)cc2)C(=O)/C1=C\c1cccc([N+](=O)[O-])c1 | -0.4%
Cc1ccccc1N1C(=O)c2ccc(-c3nc4ccccc4c(=O)o3)cc2C1=O | -4.9%
Cn1ccnc1SCc1ccc(C(=O)O)cc1 | -6.7%
Cc1cc(Cl)ccc1NC(=O)c1ccc(Cl)cc1 | -5.1%
CN(C)CCCNC(=O)c1ccc2sc3cc(=O)c(N)cc-3nc2c1 | 44.6%
Cc1ccc(C)c(NCc2ccncc2)c1 | 0.2%
CCCN1CCC(=NNC(=O)c2ccccc2C)CC1 | 3%
O=C1CCCCCC1C1(O)C(=O)Nc2ccccc21 (stereo unspecified) | 9.5%
CCc1ccc(NC(=O)CN(c2ccc(Br)cc2)S(=O)(=O)c2ccccc2)cc1 | -7.5%

SMILES | displacement
CC1(C)CC(=O)C2=C(C1)Nc1ccccc1NC2c1ccc(-c2ccccc2)cc1 (stereo unspecified) | 0%
O=C1CC(c2cccc(Br)c2)c2cc(Br)c3ccccc3c2N1 (stereo unspecified) | 11%
CCOc1ccc(N(CC(=O)N[C@@H]2CCCC[C@H]2O)S(C)(=O)=O)cc1 | 7.3%
Cc1ccc(-c2cc(C(=O)Nc3c(C)cccc3C)c3ccccc3n2)s1 | 4.2%
CC(C)(C)c1ccc(S(=O)(=O)Nc2cc(C(N)=O)c(Cl)cc2Cl)cc1 | 0.5%
CC(C)OP(=O)(OC(C)C)C(Nc1cccc([N+](=O)[O-])c1)c1cccc([N+](=O)[O-])c1 (stereo unspecified) | -17.9%
CCCCOP(=O)(CC(=O)OC)CC(=O)OC | 17.9%
Cc1cc(/C=C2/SC(=S)NC2=O)c(C)n1-c1cccc(Cl)c1 | -51.8%
COc1ccc(Oc2ccc(-n3c(C)cc(C=O)c3C)cc2)cc1 | 0.4%
CC(C)Oc1ccc(-c2cc(C(=O)O)c3ccccc3n2)cc1 | -1.7%
CCCCn1c(CN2C(=O)c3ccccc3C2=O)nc2ccccc2c1=O | 10%
O=C(CN1C(=O)/C(=C/c2ccccc2)SC1=S)NNC(=O)c1ccncc1 | -3%
CN=C(C)C1=C(O)C(C(=O)OC)C(C)(C)CC1=O (stereo unspecified) | 6.2%
CCOc1cc(C(=S)N2CCOCC2)ccc1OC(=O)Cc1ccccc1 | 4.2%
Cc1cccc(OCC(=O)NCc2cccnc2)c1 | -2.5%
COC(=O)c1cc(C(=O)N2CCc3ccccc3C2)cc([N+](=O)[O-])c1 | 15.4%
Cc1cc(OCC(=O)Nc2sc3c(c2C(N)=O)CCC(C)C3)ccc1Cl (stereo unspecified) | 2.8%
C/C(CC(=O)Nc1cccc2c1CCCC2)=N\NC(=O)C(=O)NC1CCCCC1 | -14.9%
O=C1c2ccccc2C(=O)N1CCS(=O)(=O)NC12CC3CC(CC(C3)C1)C2 | -3.7%
Cc1ccc(OCC(=O)Nc2ccccc2C(=O)O)c(Br)c1 | -4.5%
COc1ccc(NC(=O)COc2cccc3ccccc23)cc1Cl | 4.8%
O=C(/C=C/c1cccc([N+](=O)[O-])c1)NCCCn1ccnc1 | -1.5%
COc1ccccc1OCCCc1c(C)n[nH]c1C | -9.3%

SMILES | displacement
Cc1ccccc1C(=O)Nc1cc(C(=O)O)cc(C(=O)O)c1 | 3.3%
Cc1ccc2c(c1)NC(c1ccccc1)C1=C(CC(C)(C)CC1=O)N2 (stereo unspecified) | -3.1%
O=c1oc2c(-c3cccc(Cl)c3)cc(O)cc2s1 | -0.7%
O=Cc1cn(CCC(=O)O)c2ccccc12 | -10.1%
O=C(c1ccc(F)cc1)N1CCN(C2C3CC4CC(C3)CC2C4)CC1 (stereo unspecified) | -13.3%
COc1ccc2oc(=O)c(C(=O)Nc3c(C)n(C)n(-c4ccccc4)c3=O)cc2c1 | -3.9%
CCCOC(=O)C1=C(C)NC2=C(C(=O)CC(c3ccccc3)C2)C1c1ccccc1Br (stereo unspecified) | 0.1%
O=C(Nc1ccccc1C(=O)N/N=C/c1ccco1)c1ccccc1 | 46.3%
CC(C)OC(=O)COc1ccc2c(-c3ccccc3)cc(=O)oc2c1 | 13.2%
CCOc1ccc(-n2c(O)c(C=C3C=CC=N3)c(=O)[nH]c2=O)cc1 | 13.1%
Cc1ccc(-c2ccc(OC(=O)c3ccco3)cc2)cc1 | 13.8%
CCc1c(C#N)c(N)nc(SCC(=O)c2ccc(-c3ccccc3)cc2)c1C#N | -2.3%
O=C(NC(=S)NCc1ccco1)c1ccc(Br)cc1 | -7.3%
O=c1ccnc2c1c(-c1ccccc1)nc1[nH]onc12 | 5.6%
O=C(COc1ccc2ccccc2c1)Nc1ccc(Cl)cc1 | 7.8%
CCOC(=O)C(C)C(O)C(=O)OCC (stereo unspecified) | 5.2%
COc1ccc(Cl)cc1C(=O)Nc1nc(-c2ccc(C)cc2)cs1 | 1%
COc1cc2c(cc1OC)CN(c1ccc(C(=O)O)cc1)C(=O)C2 | -5.8%
COc1cc(C(=S)N2CCOCC2)cc(I)c1O | -6.4%
COC(=O)C1(S(=O)(=O)c2ccc(Cl)cc2)CCOCC1 | -0.3%
COC(=O)c1ccc(C2C(C(=O)OCC(C)C)=C(C)NC3=C2C(=O)CCC3)cc1 (stereo unspecified) | 5.4%
Cc1ccccc1C(=O)Nc1sc2c(c1C(=O)N1CCCC1)CCCCC2 | 17.5%
CCOC(=O)C1=C(C)N=c2s/c(=C\c3cccc([N+](=O)[O-])c3)c(=O)n2C1c1cccc(OC)c1 (stereo unspecified) | 4.1%

SMILES | displacement
CC(C)c1ccc(C2/C(=C(/O)c3ccccc3)C(=O)C(=O)N2CC2CCCO2)cc1 (stereo unspecified) | 1.1%
C=CCN1C(=O)/C(=C\c2ccc(-c3cccc([N+](=O)[O-])c3)o2)C(=O)NC1=S | 12.9%
CCCc1ccc(C(=O)N2c3ccccc3C(Nc3ccccc3)CC2C)cc1 (stereo unspecified) | 12.9%
C=CCN(CC=C)C(=S)Nc1ccc2nc(-c3ccccc3)c(-c3ccccc3)nc2c1 | -6.6%
Nc1cc(C(=O)c2ccc(Cl)c(N)c2)ccc1Cl | -4.6%
CCOc1ccc(/C=C2/SC(=S)N(CN3CCOCC3)C2=O)cc1 | 8.8%
COC(=O)c1ccc(N2C(=O)CC(NCc3ccccc3)C2=O)cc1 (stereo unspecified) | -6.6%
Cc1cc(OCCc2c(C)n[nH]c2C)ccc1Cl | 2.9%
COc1ccc2c(c1)-c1c(ssc1=Nc1ccc(S(=O)(=O)NC(C)=O)cc1)C(C)(C)N2 | -15%
CCOc1ccccc1NC(=O)C(=O)NCCCOC | 17.8%
O=C(Nc1ccccc1O)c1ccc2c(c1)OCCO2 | -1.6%
O=C(NCCCN1CCOCC1)/C(=C/c1cccs1)NC(=O)c1ccccc1 | 8.5%
CCOC(=O)CC(=O)CSc1nc(C)c2cc(OCC)ccc2n1 | 67.2%
COC(=O)c1c(C)oc2ccc(OC(=O)c3ccc([N+](=O)[O-])cc3)cc12 | 8%
O=C(NC(=S)Nc1ccc2c(c1)-c1ccccc1C2)c1ccccc1 | 51.9%
CCOC(=O)c1ccc(Nc2nc3nonc3nc2NCc2ccco2)cc1 | 2.3%
CN1CCN(/N=C2\C(=O)Nc3ccccc32)CC1 | 10.1%
CCCC1=NN(c2ccc([N+](=O)[O-])cc2)C(=O)/C1=C/c1cccc([N+](=O)[O-])c1 | -10.5%
COc1cccc(NC(=O)/C(=C/c2ccccc2)c2ccccc2)c1 | 12.8%
